From the supplement of paper PMC10126150 come the findings set out here.

This series concerns ATP. Kind of series: switch fluorescence ratio, 500 uM ATP over buffer (Cy3 cluster intensity, sum of 5 cycles each) (fold (ratio)); higher = stronger signal-on switching upon ATP binding; sequences stand for … in TCGTCGGCAGCGTCAGATGTGTATAAGAGACAGTTTTTTTTTTTTTTTTTTTTTTTTT…TC. The following applies: aptamer strand: ATP DNA aptamer (quencher-CACCTGGGGGAGTATTGCGGAGGAAGG + anchor), 100 nM annealed; ATP concentration: 500 uM; one replicate. The procedure, abridged: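 Exposure to 500 uM ATP lasted 15 min at 22 °C before imaging, and a selection-buffer image was taken beforehand, for Cy3-labelled switching-strand clusters on a modified Illumina MiSeq flow-cell annealed to 100 nM quencher-labelled ATP aptamer. Five buffer/ATP cycles were run with NaOH stripping and re-annealing between them. The fluorescence ratio per cluster is summed target-cycle over summed buffer-cycle Cy3 intensity, averaged per switch-domain sequence. Clusters outside 100-1000 RFU were excluded.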

Values marked as one replicate rest on one cluster of the flow cell; about a third of the high ones do not repeat.

As to GGCAGACGTC, the switch fluorescence ratio is 1.02.
For TTGATGTTGA, the switch fluorescence ratio came to 0.982.
The result for TTTGCTGAAT reads 1.56; that for ATAGGCGGGC, 1.01.
With TAGGTCGTCT, the switch fluorescence ratio came out at 1.04.
Take ATTAAATGTT: the switch fluorescence ratio stood at 0.967.
Regarding ATTTTTTGC, the switch fluorescence ratio turned out to be 0.945.
Regarding ACCGAACCCG, the switch fluorescence ratio is 1.47.
Regarding TGACGGTGTT, the switch fluorescence ratio is 1.04.
As to TGTTAGCTTC, the switch fluorescence ratio turned out to be 1.02.
As for CGGTATTCGT, the switch fluorescence ratio was 0.96.
As for CGAAGCGCCT, the switch fluorescence ratio amounted to 1.04.
Then TGTATTAGAC, with 1; and ATGACTATG, with 0.945; and TTATCAAATG, with 0.976.
Turning to CATAACGATC, the switch fluorescence ratio stood at 1.01.
On to TGAATAAGGT, for which the switch fluorescence ratio stood at 0.968.
The result for AAGCGCTAAG reads 0.974; that for GCGCTCCGTG, 1.05; that for GTTGATCCGT, 1.01.
On to GGTTATAGCA, for which the switch fluorescence ratio came out at 0.971.
As to GCGATAGAGG, the switch fluorescence ratio worked out at 0.914.
In the case of GGTGCGGTAC, the switch fluorescence ratio came to 2.91.
Consider CCACAGTCCC, for which the switch fluorescence ratio was found to be 1.11.
For GTTTGTAAT, the switch fluorescence ratio turned out to be 0.988.
Regarding AGGAAAGGGT, the switch fluorescence ratio amounted to 0.936.
GGTGGGGTG: the switch fluorescence ratio worked out at 1.05.
In the case of TCTAGTTCTG, the switch fluorescence ratio amounted to 1.02.
Consider TCGAAGAGGG, for which the switch fluorescence ratio came to 0.973.
In the case of ATCGGACCGT, the switch fluorescence ratio stood at 1.01.
In the case of GTCCGGGGTA, the switch fluorescence ratio amounted to 1.11.
On to GAACGAGATC, for which the switch fluorescence ratio was 0.983.
Turning to GCGACGCTGT, the switch fluorescence ratio was 2.33.
Take ATGCTTGCCT: the switch fluorescence ratio stood at 1.02.
With GGCTTCGAAA, the switch fluorescence ratio worked out at 1.15.
Regarding TTGGATAATA, the switch fluorescence ratio was 0.992.
With CGCGCATTTT, the switch fluorescence ratio worked out at 1.04.
On to ATTCGCATTT, for which the switch fluorescence ratio turned out to be 1.16.
On to ACGGATGCAA, for which the switch fluorescence ratio was found to be 3.36.
For GACAGGATCC, the switch fluorescence ratio is 1.
Take GAGCTGGGCC: the switch fluorescence ratio was 0.984.
As to GAAGCACCAG, the switch fluorescence ratio was determined as 1.09.
Regarding TCATTCCAAT, the switch fluorescence ratio was found to be 1.02.
For AGGGGTCATA, the switch fluorescence ratio worked out at 0.975.
As to GCCGACTAGC, the switch fluorescence ratio was 1.06.
Regarding ACTCGGAAA, the switch fluorescence ratio was determined as 1.19.
On to AGAGGTCTGC, for which the switch fluorescence ratio is 0.961.
In the case of ACTTACTCCT, the switch fluorescence ratio is 1.47.
On to TCACCGGCGT, for which the switch fluorescence ratio amounted to 1.01.
For the sequence TTGTCAAATG, the switch fluorescence ratio was found to be 1.01.
TGCATGAATC: the switch fluorescence ratio is 1.07.
As to TACGTAGTTC, the switch fluorescence ratio was determined as 1.04.
On to ACGTTCAAAC, for which the switch fluorescence ratio came out at 1.18.
Consider AAGTGGTC, for which the switch fluorescence ratio was found to be 1.01.
Take CGCGTACGCA: the switch fluorescence ratio was 0.985.
As to GTTTAAAGCT, the switch fluorescence ratio was 1.17.
Then GAGAAGGGGT, with 1; and CAGGGGGCAA, with 2.26.
On to TCGCGCCCAC, for which the switch fluorescence ratio turned out to be 1.49.
GTTCTGAGTA: the switch fluorescence ratio is 1.02.
Consider ATGGCTATGC, for which the switch fluorescence ratio was 0.974.
Take AGGCTTTCG: the switch fluorescence ratio amounted to 0.962.
Then GAAAAAGGCT, with 1.12.
Turning to TTGGCCCAGC, the switch fluorescence ratio amounted to 1.01.
With AAGAGAGCGT, the switch fluorescence ratio is 0.996.
Take CAAGAGCAAG: the switch fluorescence ratio was determined as 1.43.
The result for ACCTATATGA reads 1.04; that for GGGGGAAC, 1.02.
Then CGAAAACCA, with 1.03.
Take ACAACTGCTT: the switch fluorescence ratio is 0.99.
For the sequence CGTGAATAAA, the switch fluorescence ratio was found to be 0.979.
The result for CCGGTTACCT reads 1.2.
Then GATTGTTACT, with 1.04; and CCACAATAT, with 3.1.
With GATGCTTGGG, the switch fluorescence ratio worked out at 1.
The result for CAACTGTTTG reads 1.02; that for CGGTATGTGG, 1.02; that for AATGCGAGAT, 1.01.
On to CTTGAGCCTT, for which the switch fluorescence ratio was determined as 1.02.
Take GGTTCCGGGC: the switch fluorescence ratio turned out to be 1.1.
Regarding TTTCATACTT, the switch fluorescence ratio came to 0.997.
Consider ATCAAATGTT, for which the switch fluorescence ratio was 0.987.
Then TAATAAGGAT, with 0.947.
Then ACGTCTAGGT, with 1.02.
Consider ATTGCAAGCC, for which the switch fluorescence ratio amounted to 1.41.
The result for ACAGCATGCT reads 0.992; that for AAACGGCCGG, 1.01.
In the case of TGTAAAACAG, the switch fluorescence ratio came out at 1.
The result for AGATAGTGAT reads 0.938.
In the case of TGCTACCTCG, the switch fluorescence ratio was 1.04.
Turning to ATGATATTCT, the switch fluorescence ratio was 0.991.
As for AGTTCTGGGG, the switch fluorescence ratio turned out to be 1.02.
Consider CGAGGTCCAG, for which the switch fluorescence ratio was 0.965.
As for CACTGTTGTG, the switch fluorescence ratio amounted to 1.01.
Then TATACTTTTA, with 0.993; and ATATAATAAC, with 0.987.
The result for GATGGAAGAA reads 0.95.
Then AGAGTCTCGT, with 0.983.
For CCGGCGTAGT, the switch fluorescence ratio is 1.33.
In the case of GCCATGGTGC, the switch fluorescence ratio is 1.23.
Regarding TAGTGGAATG, the switch fluorescence ratio came to 0.974.
For ATATTGGATC, the switch fluorescence ratio is 1.02.
Turning to ATTTAGCACC, the switch fluorescence ratio is 1.06.
Consider ATAGTGAATA, for which the switch fluorescence ratio amounted to 1.04.
Consider AGAAACGTCT, for which the switch fluorescence ratio was 1.07.
For the sequence CCCCTATCCC, the switch fluorescence ratio was 1.05.
Take TTATACTCTG: the switch fluorescence ratio was found to be 1.
Take TCTCCGTCAG: the switch fluorescence ratio was determined as 4.84.
AGTTAACAGA: the switch fluorescence ratio amounted to 0.997.
Turning to AGTGTCTCGC, the switch fluorescence ratio came to 1.
As for CATACAGCGT, the switch fluorescence ratio is 0.977.
Then CATTGTGGCT, with 0.993.
Then TTACTGTGTA, with 0.967; and GTTGCGATCA, with 1.03.
With ATAGATGTAC, the switch fluorescence ratio was 1.03.
GACTCTTGCA: the switch fluorescence ratio was found to be 1.13.
For ACTTCGGTTG, the switch fluorescence ratio turned out to be 1.01.
AGAGGGATTC: the switch fluorescence ratio was determined as 0.988.
Regarding ACGTTCTCGC, the switch fluorescence ratio was 1.08.
The result for CAGAAGCCGG reads 0.968.
